# Results as given in PubChem BioAssay AID504832 (National Center for Advancing Translational Sciences (NCATS), 2011).
# The whole screen tested about 310,000 compounds, of which about 18,000 (5.8%) were called active. Inconclusive results, whose numbers are uncertain, are shown with a selection of clear calls. Calls follow the shape of the dose curve; as a rule, active = well fitted inhibition curve with a large enough effect; inconclusive = small, poorly fitted or top-dose-only effect, or another doubt; inactive = no such curve, though single readings can be large or run the other way. Potencies of inconclusive entries are left out as doubtful fits.
# Assay: Primary qHTS for delayed death inhibitors of the malarial parasite plastid, 48 hour incubation
# Conditions: P. falciparum luciferase growth in erythrocytes; series mostly up to 28.7 µM
# Summary of the method: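 First compound was added to culture medium, then infected red cells at 0.1% parasitemia and 2% hematocrit (final). After incubation at 37 C under 5% CO2, luciferase detection reagent was dispensed and light output recorded.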
# Potency is read from the fitted curve at half-maximal effect; tags tell the direction and shape of the fitted curve.
row,SMILES,Potency
1,CCOC(=O)c1c(C)c(C(=O)Nc2cc(OC)ccc2OC)c(C)n1CC,"inconclusive [inhibitor, partial curve]"
2,CC(C)(C)c1ccc(NC(=S)NCCc2ccccn2)cc1,inactive
3,CN(C)S(=O)(=O)c1ccc(S(=O)(=O)NCc2ccc3c(c2)OCO3)cc1,inactive
4,Cc1cc(SCC(=O)N(C)CC(=O)Nc2ccc(F)cc2)nc2ccccc12,inactive
5,Cc1ccc(S(=O)(=O)NC2CC(C)(C)NC(C)(C)C2)cc1,"inconclusive [inhibitor, single point]"
6,COc1ccc(OC)c(NC(=O)CSc2nc3c(c(=O)n(C)c(=O)n3C)n2C)c1,"inconclusive [inhibitor, partial curve]"
7,Nn1c(SCC(=O)Nc2c(Cl)cccc2Cl)nncc1=O,"inconclusive [inhibitor, single point]"
8,COc1cccc(Nc2nc(N)c([N+](=O)[O-])c(N3CCOCC3)n2)c1,"inconclusive [inhibitor, single point]"
9,CCCCN(C(=O)CSc1nnc(Nc2ccccc2)s1)c1c(N)n(CCC)c(=O)[nH]c1=O,inactive
10,COCCN(CCOC)S(=O)(=O)c1ccc(C(=O)Nc2nnc(CSC)o2)cc1,inactive
11,COCCN(C(=O)CSc1n[nH]c(-c2ccccc2)n1)c1c(N)n(Cc2ccccc2)c(=O)[nH]c1=O,"inconclusive [inhibitor, single point]"
12,NC(=O)c1nsc(C(=O)N(c2ccccc2)C(C(=O)NC2CCCC2)c2ccc3ncccc3c2)c1N (stereo not given),"inconclusive [inhibitor, single point]"
13,O=C(CN1CC(=O)Oc2ccccc21)OCC(=O)c1ccc(F)cc1,"inconclusive [inhibitor, single point]"
14,CN(C)Cc1ccccc1Sc1ccc(Br)cc1,inactive
15,Cc1ccc(NC(=S)NCCC(c2ccccc2)c2ccccc2)c(C)c1,"inconclusive [inhibitor, partial curve]"
16,COC(=O)c1cc(C)nc(Sc2ccccc2NC(C)=O)n1,inactive
17,COc1ccc(NC(=O)CCNS(=O)(=O)c2cc(Br)ccc2Br)cc1S(N)(=O)=O,inactive
18,CCn1c(SCC(=O)NC2CCCCC2C)nnc1-c1ccc(OC)cc1 (stereo not given),"inconclusive [inhibitor, partial curve, poor fit]"
19,CCN1CCN(c2ccc(S(=O)(=O)N3CCOCC3)cc2NC(=O)c2ccc(C)cc2C)CC1,"inconclusive [inhibitor, single point]"
20,COc1ccc(S(=O)(=O)N2CCCCCC2)cc1C(=O)N(CC(C)C)C1CCS(=O)(=O)C1 (stereo not given),"inconclusive [inhibitor, single point]"
